Hit rate of the full screen: of about 48,000 compounds, about 550 (1.1%) were called active. Another 4% or so got no clear call; they are omitted. No stated cut-off is given here; in the data, active means potency below about 15 µM; inconclusive means mostly about 16 µM to 33 µM; inactive means weaker than that. Some of the results follow.
Molecular target: Lysosomal acid glucosylceramidase (Homo sapiens) (UniProt P04062)
Assay: Glucocerebrosidase;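 further: the screen sought inhibitors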
Details: purified enzyme, resorufin glucoside fluorescence (screen aimed at inhibitors), 20 min; series mostly up to 77 µM
Outline: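 Compounds titrated against 0.2 nM normal enzyme, 30 uM resorufin beta-D-glucopyranoside substrate, citrate/phosphate buffer with taurocholate and tween-20, pH 5.9. Reaction ran 20 min at room temperature; fluorescence (Ex 548/Em 600) gave AC50.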
Potency means the concentration at half of the fitted maximal effect.

Sequence of UniProt P04062 (P04062 whole entry, looked up): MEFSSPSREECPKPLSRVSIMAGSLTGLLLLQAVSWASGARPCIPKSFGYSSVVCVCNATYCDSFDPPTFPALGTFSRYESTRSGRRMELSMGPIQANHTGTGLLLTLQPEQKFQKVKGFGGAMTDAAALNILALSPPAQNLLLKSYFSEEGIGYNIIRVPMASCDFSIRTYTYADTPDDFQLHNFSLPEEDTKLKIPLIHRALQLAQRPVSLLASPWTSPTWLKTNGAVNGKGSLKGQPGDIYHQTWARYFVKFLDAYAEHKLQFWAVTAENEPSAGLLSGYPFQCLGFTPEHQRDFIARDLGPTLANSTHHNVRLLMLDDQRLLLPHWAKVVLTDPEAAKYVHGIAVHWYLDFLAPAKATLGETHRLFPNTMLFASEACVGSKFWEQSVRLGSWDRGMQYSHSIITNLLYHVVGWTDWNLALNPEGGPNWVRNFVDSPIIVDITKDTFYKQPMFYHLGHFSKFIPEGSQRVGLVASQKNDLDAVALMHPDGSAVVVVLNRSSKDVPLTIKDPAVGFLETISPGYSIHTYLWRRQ

Potency, inactive:
O=C(Cn1cc(C(F)(F)F)ccc1=O)N1CCN(S(=O)(=O)c2ccc(Cl)cc2)CC1 > 76.9 µM, N=c1c2c(-c3ccccc3)c(-c3ccccc3)oc2ncn1CCCN1CCOCC1, O=S(=O)(NCCNS(=O)(=O)c1cccs1)c1cccs1 > 76.9 µM, CCCCNC(=O)c1cn(C)c2ccc(S(=O)(=O)N3CCOCC3)cc2c1=O > 76.9 µM, Cn1c(SCc2ccccn2)nnc1-c1ccncc1 > 76.9 µM, CCCCC(c1nnnn1CS(=O)(=O)c1ccc(C)cc1)N1CCN(c2ccccc2)CC1 (stereo not given) > 76.9 µM, Cc1ccc(NC(=O)CSc2nnc(CSc3nc(C)cc(C)n3)n2Cc2ccco2)c(C)c1 > 76.9 µM, CCOC(=O)c1ccc2c(c1)N(CC(=O)N1CCCC1)C(=O)C(C)(C)O2 > 76.9 µM, O=C(NCc1ccc2c(c1)OCO2)c1cccc(S(=O)(=O)N2CCOCC2)c1 > 76.9 µM, CC1CCc2nc(NC(=O)CN3CCN(Cc4ccc5c(c4)OCO5)CC3)sc2C1 (stereo not given) > 76.9 µM, Cc1cc(C(=O)N(C2CCCCC2)C2CCCCC2)no1 > 76.9 µM, COc1ccc(C(=O)Nc2ccc(OC)c(OC)c2)cc1 > 76.9 µM, CCOc1ccc(C(=O)Nc2cc(C)on2)cc1OCC > 76.9 µM, O=C(N1CCOCC1)N1CCN(Cc2ccccc2)CC1 > 76.9 µM, CCCSc1nc2c(c(=O)[nH]c(=O)n2C)n1Cc1ccc(C)cc1 > 76.9 µM, Cc1ccc(C(=O)Nc2cnc3sc(C)nn3c2=O)cc1 > 76.9 µM, CCOC(=O)N1CCC(N2C(=O)c3ccc(C(=O)O)cc3C2=O)CC1 > 76.9 µM, Cc1cc(C)c(C#N)c(SCC(=O)N2CCCCC2)n1 > 76.9 µM, Cc1cc(C)n(-c2ccc(C(=O)Oc3ccc4c(c3)OCO4)cc2)n1 > 76.9 µM, CN(Cc1nc(-c2cccnc2)no1)S(=O)(=O)c1ccc2ccccc2c1 > 76.9 µM, COc1ccc(C(=O)CN2CCN(c3ccc(F)cc3)CC2)cc1OC > 76.9 µM, COc1cccc(C(=O)N2CCN(C(=O)c3cccs3)CC2)c1OC > 76.9 µM, Cc1ccccc1Nc1nc(N)nc(COC(=O)CCS(=O)(=O)c2ccccc2)n1 > 15.4 µM, O=C(c1cc2ncc(Br)cn2n1)N1CCN(C(=O)c2ccco2)CC1 > 76.9 µM, COc1cc2c(cc1OC)CN(C(=O)COc1ccc(C#N)cc1)CC2 > 76.9 µM, Cc1ccc2[nH]c(=O)c(C(c3nnnn3C(C)(C)C)N(Cc3ccco3)CC3CCCO3)cc2c1 (stereo not given) > 76.9 µM, O=C(CN1C(=O)c2ccccc2S1(=O)=O)N1CCc2ccccc2C1 > 76.9 µM, CCOC(=O)N1CCN(c2nc(-c3ccc(F)cc3)cs2)CC1 > 76.9 µM, CCOC(=O)CSc1nnc(N)s1 > 76.9 µM, Oc1ccc(CNc2ccccc2)c2cccnc12 > 76.9 µM, COc1cc(C(=O)OCC(=O)NCc2ccco2)cc(OC)c1OC > 76.9 µM, CCCNC(=O)C1CCN(c2nc(C)cc(C)n2)CC1 > 76.9 µM, COc1ccc(C(=O)n2nnc3ccccc32)cc1Br > 76.9 µM, Cc1cc2ncn(/N=C/c3cccnc3)c2cc1C > 76.9 µM, Cc1c(NC(=O)C23CC4CC(CC(C)(C4)C2)C3)c(=O)n(-c2ccccc2)n1C > 76.9 µM, Cc1ccc(C(c2nnnn2CC2CCCO2)N2CCN(C(=O)c3ccco3)CC2)cc1 (stereo not given) > 76.9 µM, COc1cccc(Oc2cn[nH]c2-c2ccc(OC)cc2O)c1 > 76.9 µM, COCc1cc(=O)[nH]c(/N=C(\N)Nc2ccc(C)cc2)n1 > 76.9 µM, COc1ccc(CNc2nc3c(c(C(F)(F)F)n2)CCCCC3)cc1 > 76.9 µM, O=C(O)C1C(c2ccccc2)C(C(=O)Oc2ccc(O)cc2)C1c1ccccc1 (stereo not given) > 76.9 µM, c1ccc(N2CCN(c3nc4cc5c(cc4s3)OCCO5)CC2)cc1 > 76.9 µM, CC1CN(c2oc(-c3ccco3)nc2S(=O)(=O)c2ccccc2)CC(C)O1 (stereo not given) > 76.9 µM, Cc1ccc(-n2nc(C)c3c(-c4cccs4)c(C#N)c(N)nc32)cc1 > 76.9 µM, COc1ccc(NC(=O)CN(C)S(=O)(=O)c2ccccc2)cc1OC > 76.9 µM, CCOc1ccc(NC(=O)C2CC(=O)N(c3cc(C)cc(C)c3)C2)cc1 (stereo not given) > 76.9 µM, CCn1c(SCC(=O)Nc2cc(C)on2)nc2sc(C)c(C)c2c1=O > 76.9 µM, Cc1ccc(S(=O)(=O)c2c(N)n(CC3CCOC3)c3nc4ccccc4nc23)cc1 (stereo not given) > 76.9 µM, O=C(O)CSC(NC(=O)c1cccnc1)(C(F)(F)F)C(F)(F)F > 76.9 µM, O=C(OCc1nnc(-c2ccc(Cl)cc2)o1)c1ccc(=O)n(Cc2ccccc2)n1 > 76.9 µM, CC1CCCC(C)N1Cc1cn2ccccc2n1 (stereo not given) > 76.9 µM, COc1ccc(S(=O)(=O)N2CCCC(C(=O)Nc3cccc(C(C)=O)c3)C2)cc1 (stereo not given) > 76.9 µM, Cc1ccc(-n2nc(-c3ccco3)cc2C(=O)NCc2cccnc2)cc1 > 76.9 µM, CC(C)(C)OC(=O)N1CCC[C@H]1c1nnc(SCc2ccccc2F)o1 > 76.9 µM, COCC(=O)Nc1nc2ccc(S(C)(=O)=O)cc2s1 > 76.9 µM, CSc1ccc(-c2c(C#N)c(N)nc3c2c(C)nn3-c2ccccc2)cc1 > 76.9 µM, Cc1nn(-c2cc(C)c3ccccc3n2)c2c1CCC2 > 76.9 µM, CCC(=O)c1ccc(OCCN2CCOCC2)cc1 > 76.9 µM, CCOc1nc(OCC)nc(N2CCC(C)CC2)n1 > 76.9 µM, Cc1[nH]c2ccc(-c3nnc(SCC(=O)N4CCCc5ccccc54)o3)cc2c1C > 76.9 µM, O=C(OCCNc1ncc(C(F)(F)F)cc1Cl)c1ccc(S(=O)(=O)N2CCOCC2)cc1 > 76.9 µM, N#CCCN1CCN(C(=S)c2ccc(-c3ccc(Cl)cc3)o2)CC1 > 76.9 µM, C=C(C)COc1ccc(-c2n[nH]c(C)c2-c2ccccc2)c(O)c1 > 76.9 µM, N#CCCN(C(=O)CN1C(=O)NC2(CCCC2)C1=O)c1ccccc1F > 76.9 µM, O=C1CCC(=O)c2oc3ccccc3c2N1 > 15.4 µM, O=C(Nc1cnn(Cc2ccc(F)cc2)c1)c1cnccn1 > 76.9 µM, Cc1cc(Cl)c(S(N)(=O)=O)cc1OCC(N)=O > 76.9 µM, CCc1ccc(-c2nnn(CCC(=O)OC)n2)cc1 > 76.9 µM, CCSc1cc(C2C(C(=O)OC)=C(C)NC3=C2C(=O)CCC3)c(C)o1 (stereo not given) > 76.9 µM, N#Cc1nc(-c2ccccc2F)oc1NCCc1ccccn1 > 76.9 µM, COc1ccccc1N1CCN(C(=O)CCNS(=O)(=O)c2ccc(Br)s2)CC1 > 76.9 µM, COc1ccccc1NC(=O)c1cc2n(n1)C(C(F)(F)F)CC(c1ccc3c(c1)OCO3)N2 (stereo not given) > 76.9 µM, CCC1(CC)C(=O)NC(=O)NC1=NCCc1c[nH]c2ccccc12 > 76.9 µM, O=C(c1ccco1)N1CCN(C(c2cccs2)c2nnnn2C2CCCCC2)CC1 (stereo not given) > 76.9 µM, CCOc1ccccc1N1CCN(S(=O)(=O)c2ccc(Cl)s2)CC1 > 76.9 µM, CCOc1ccc2nc(SCC(=O)N3CCCCCC3)c(C#N)cc2c1 > 76.9 µM, COc1ccc(N2CCN(c3ncnc4c3cnn4-c3ccc(C)cc3C)CC2)cc1 > 76.9 µM, Cc1cccc(C(=O)NC2CC3CCCC(C2)N3C(=O)NC2CCCCC2)c1 (stereo not given) > 76.9 µM, COc1cccc(CNS(=O)(=O)c2cn(C)cn2)c1 > 76.9 µM, CC(=NCc1ccc2c(c1)OCO2)C1=C(O)c2ccccc2C1=O > 76.9 µM, CCn1c(CNC(=O)c2ccc3c(c2)OCO3)nnc1SCC(=O)Nc1cc(C)ccc1OC > 76.9 µM, NC(=O)C1CCN(CC(=O)Nc2ccccn2)CC1 > 76.9 µM, CCOc1ccc(CCNC(=O)C2CCN(c3nn4c(=O)cc(C)nc4s3)CC2)cc1 > 76.9 µM, O=C(NCc1n[nH]c(=S)n1-c1ccccc1)c1ccco1 > 76.9 µM, CN(CCc1ccccn1)c1ncnc2[nH]ncc12 > 76.9 µM, CCN(CC)C(=O)CSc1nnc(-c2cccs2)n1Cc1ccco1 > 76.9 µM, O=C(COc1ccc(Cl)cc1)OCC(=O)N1CCCCCC1 > 76.9 µM, O=C1Nc2ccccc2C12OCCCO2 > 76.9 µM, Cc1ccc(S(=O)(=O)NC2=NCCC2)cc1 > 76.9 µM, CCOC(=O)CNC(=O)c1nn(-c2ccc(OCC)cc2)c(=O)c2ccccc12 > 76.9 µM, O=C(NC1(C(F)(F)F)NC(=O)N(CC2CCCCC2)C1=O)c1ccco1 (stereo not given) > 76.9 µM

Reference: PubChem BioAssay AID360 (National Center for Advancing Translational Sciences (NCATS), 2006)
